Test results from the RNAGym collection of RNA variant scans (doi:10.7554/elife.90254).
Read counts are not given, so values of variants with three or more changes are uncertain.

B1: LINE1-mini (parent)
chain: GGCAGAGCUCAACACAGCGUGGCAAAGUGGCUGUGGCUAGACUGCC

Variants of: B1
Assay: self-cleavage, relative activity (ratio to wild type); higher = more cleavage; in vitro, sequencing; the parent is a self-cleaving ribozyme

Row | Variant | self-cleavage
1 | GGCAGAGCUCACCACACCGUGGAAACGUGGCUGUGGCUAAACUGCC [A12C G17C C23A A26C G40A] | 0
2 | UGCAGAGCUCAACAAAGCGUGGCAAAGUGGCUGUGUCUUGCCUGCC [G1U C15A G36U A39U A41C] | 0.06
3 | GGCAGAGCUAAACACAGCGUGGCAACGUGGCUUUGGCUAGACUGCC [C10A A26C G33U] | 0
4 | AGCGGGGCUAAACACAGCGUGGCAAAGUGGCUGUGGCUAGACUGCC [G1A A4G A6G C10A] | 0.03
5 | GGCAGAGCUCAACACAGCGUGGCAAACUGGCUGUCGCCAGACUGCC [G27C G35C U38C] | 0.01
6 | GGCAGAGUUCAACACAGCGUGUCAAAGUGGCUGUGGCUAGAUUGCC [C8U G22U C42U] | 0.09
7 | GGAAGAACUCAACACAGCAUGGCAAAGUUGCUGUGGCUAAACUGUC [C3A G7A G19A G29U G40A C45U] | 0.11
8 | GGCAGAUCUCAACACAGCGUGGCAAAGUGCCUGUCGCUAGACUGCC [G7U G30C G35C] | 0.21
9 | GGCAGAGCUCAAGAGAGCGUGGCGAAGUGGCUGUGGCUAGACUGCC [C13G C15G A24G] | 0.03
10 | GGCAGAGCUCAACACAGCGCGGCAUAGUCGCUGUGGGUAGACUGCC [U20C A25U G29C C37G] | 0.01
11 | GGCAGAGCUCAACCCAGCGUGGCACAGUGGCUAUGGCCAGACUGUC [A14C A25C G33A U38C C45U] | 0.03
12 | GGCAGAGCUCAACACACCGUUGCAAAGUGACUGUGGCUAGACUGCU [G17C G21U G30A C46U] | 0.64
13 | GUCAGAACUCAACACAGCGUGGCAAAGUGACUGUGGCUAGACUGCC [G2U G7A G30A] | 0.08
14 | CGCAGAGCUCAACACAGCGUGGCAAAGUGGCUGUAGCUAGACGGCC [G1C G35A U43G] | 0
15 | GGCAGAGCUCAAGACAGCGUGGCAAAGUGGCUAUGGUUAGACUGCC [C13G G33A C37U] | 0.01
16 | CGCACAGGUCAACACAGCGAGGCAAAGUGGCUGUGGGUAGACUGCC [G1C G5C C8G U20A C37G] | 0
17 | GGCAGAGCUCAACACAGCGUGGCGACAUGGAUGUGGCUAGACUGCC [A24G A26C G27A C31A] | 0.11
18 | GGAAGCUCUCAACACCGCGUGGCAUAGUGGCUGUGGGCAGACUGCC [C3A A6C G7U A16C A25U C37G U38C] | 0.13
19 | GGCAGAGGUCCACACACCGUGGCAAAGAGGCUGUGGCUAGACUGCC [C8G A11C G17C U28A] | 0.01

Row | Variant | self-cleavage
20 | GGCAGAGCUAAACACAGCUUGGCAAAGUGGCGGUGGCUAGACUGGC [C10A G19U U32G C45G] | 0.04
21 | GGCAGAGCUCAACACAGCGUGGAAAAGUGGCUGUGGCUAGAGUACC [C23A C42G G44A] | 0.03
22 | GGCAGAGCUCAACACAGCGUGGCAAAGUGGCUGUGCCUAGACGUCC [G36C U43G G44U] | 0.06
23 | GGCAGAGCUAAACACAGCGUGGCAAAGUGGUUGUGGCUAGUAUGCC [C10A C31U A41U C42A] | 0
24 | GGCAGAGCUCAACGCAGCGGGGCAAAGUGGCUGAGGCUAGACUGCC [A14G U20G U34A] | 0.02
25 | GGCAGAGCUUAGCAAAUCGUGGCAAAUUGGCUGUUGGUAGACUGCC [C10U A12G C15A G17U G27U G35U C37G] | 0.05
26 | GGCAUAGCUCAACGCAGCGUGGCUAAGUGGCUGUGGCUAGACUGCC [G5U A14G A24U] | 0.11
27 | GGCAGUGCUAAACACAGCGUGGCAAAGUGGCUGUGGCUAGACUGGC [A6U C10A C45G] | 0.03
28 | GGCCGAGCCCAACACAGCGUGGCAAAGUGGCUGUGACUAGACUGUC [A4C U9C G36A C45U] | 0.09
29 | CGCAGAGCCCAACACAGCGCGGCAGCGUGGUUGCGGCUAAACUGCC [G1C U9C U20C A25G A26C C31U U34C G40A] | 0.07
30 | GGCAGAACUCAACACAGUGUGGCAAAGUGGCUGUGGCUAGACUCCC [G7A C18U G44C] | 0.1
31 | GUCAGAGCCCAACACAGCGUGCCAAAGUGGCUGUGGCUAGACUGCC [G2U U9C G22C] | 0.01
32 | GGCAGAGCUCACCACAGCGUGGCAAAGUGGUUGUGGCUAUACUGCC [A12C C31U G40U] | 0.02
33 | GGCAUAGCGCAACACAGCGUGGCAAAGUGGCUGUUGCUAGACUGCC [G5U U9G G35U] | 0.07
34 | GGCAGAGCUCAAAACAGCGUGGCAACUUGGCUGUGGCUGGACUGCC [C13A A26C G27U A39G] | 0.1
35 | CGCAGAGCUGAACACAGAGUGGCAAAGUGGCUGUGGCUAGACUGCC [G1C C10G C18A] | 0
36 | GGCAGAGCUAAAGAGAUCGUGGCAAAGUGGCUGUGGCUAGACUGCC [C10A C13G C15G G17U] | 0.04
37 | GGCAGAGCUCUACACAGCGUGGCGAAAUGGCUGUGGCUAGACUGCC [A11U A24G G27A] | 0.24
38 | GGCAGAGCUCAACACACCGUCGCAAAGUGGCUGUGGCAAGACUGCC [G17C G21C U38A] | 0.42

Row | Variant | self-cleavage
39 | GGUAGAGCUUAACACAGCGUGGCAUAGGGGCUGUUGCUAGACUGAC [C3U C10U A25U U28G G35U C45A] | 0.04
40 | GGCAGAGCUCAACACAGCGUGUCAAAGUGGCUUUGGCUAGUUAGCC [G22U G33U A41U C42U U43A] | 0.02
41 | GACAAAGCUCAACACAGGGUGGCAAAGUGGCUGUGUUUAGACUGCC [G2A G5A C18G G36U C37U] | 0.3
42 | GGCUGGGCCCAACACAGCGUGGCAAAGUAGCUGUGGCUAGAGUGAA [A4U A6G U9C G29A C42G C45A C46A] | 0.02
43 | GGCAUAGCUCAACACAGCGUGGCAAAGUGGCUGUGGCUAAAUUGCC [G5U G40A C42U] | 0.02
44 | GGCAGAGCUCAACACAACGUGUCAAAGUGGCUCUGGCUCGACUGCC [G17A G22U G33C A39C] | 0.01
45 | GCCAGAGCUCAACACAGCGUUGCAUAGUGGCUGUGGCUAGACUGCA [G2C G21U A25U C46A] | 0.34
46 | GGCAGAUCACAAGACAGCGUGGCAAAGUGGCUGUGGCUAGACUGCA [G7U U9A C13G C46A] | 0.14
47 | GGCAUAGCUCAACACAGCGUGGAAAAGUGGUUGUGGCUAGACUGCC [G5U C23A C31U] | 0.02
48 | GGCAGAGCUAAACACAGCGUGGCAAAGUGGCUGAGGCUAGACUGUC [C10A U34A C45U] | 0.05
49 | GGCAGAGUUCAACAGGGCGGGGCAAAGUGGCUGUGGCUAGACUGCC [C8U C15G A16G U20G] | 0.05
50 | GGCAGUGCUCAGCACAGCGUGGCAAAGUGGCUGUGGCUAGACUUGC [A6U A12G G44U C45G] | 0.01
51 | GGCCGAGCUCAACACAUCGUGGCAAAGUGGUUGUGGCUAGAGUGCC [A4C G17U C31U C42G] | 0.05
52 | GGCACAACUUAACGCAGCGUAGCAAAGUGGCGGUGGCUAGACUGCC [G5C G7A C10U A14G G21A U32G] | 0.06
53 | GGCAGAGCUCAACACAGCGUCGUAAAGUGGCUGUUGCUAGACUGCC [G21C C23U G35U] | 0.19
54 | GGCAGAGCUCAACACAGCGGGGCAAAGUUGGGGUGGCUAGACUGCC [U20G G29U C31G U32G] | 0.01
55 | GGCAGUGCUCAACACAGCGUGGCAAGGAGGCUGUGGCUAGACUGCC [A6U A26G U28A] | 0.37
56 | GGCAGAGCUCAUCACAGCGUGGUAAAGGGGCUAUGGCUAGACUGCC [A12U C23U U28G G33A] | 0.1
